The values below come from patent publication US20250011379A1 (VERTEX PHARMACEUTICALS, published 2025).

Sequences and labels used below:
T1: human C4b (human, UniProt P0C0L5 20-1744)
T1 chain 1: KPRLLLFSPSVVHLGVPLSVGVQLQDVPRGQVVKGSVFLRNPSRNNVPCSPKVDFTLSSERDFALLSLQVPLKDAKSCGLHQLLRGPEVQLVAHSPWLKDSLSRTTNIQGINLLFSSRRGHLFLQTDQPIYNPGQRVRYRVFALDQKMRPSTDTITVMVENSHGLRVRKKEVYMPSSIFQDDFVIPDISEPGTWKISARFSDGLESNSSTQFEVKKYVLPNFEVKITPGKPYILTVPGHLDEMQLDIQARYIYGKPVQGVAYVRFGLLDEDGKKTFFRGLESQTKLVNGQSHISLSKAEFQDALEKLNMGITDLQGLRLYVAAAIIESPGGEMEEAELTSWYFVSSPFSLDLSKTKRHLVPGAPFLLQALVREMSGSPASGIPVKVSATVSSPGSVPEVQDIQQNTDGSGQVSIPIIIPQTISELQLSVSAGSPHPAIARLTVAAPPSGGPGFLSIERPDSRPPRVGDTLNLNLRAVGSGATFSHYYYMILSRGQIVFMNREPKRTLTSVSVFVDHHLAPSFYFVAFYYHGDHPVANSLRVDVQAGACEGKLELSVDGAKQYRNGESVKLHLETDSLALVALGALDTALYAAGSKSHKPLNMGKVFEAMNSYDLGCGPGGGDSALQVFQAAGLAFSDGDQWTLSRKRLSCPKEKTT
T1 chain 2: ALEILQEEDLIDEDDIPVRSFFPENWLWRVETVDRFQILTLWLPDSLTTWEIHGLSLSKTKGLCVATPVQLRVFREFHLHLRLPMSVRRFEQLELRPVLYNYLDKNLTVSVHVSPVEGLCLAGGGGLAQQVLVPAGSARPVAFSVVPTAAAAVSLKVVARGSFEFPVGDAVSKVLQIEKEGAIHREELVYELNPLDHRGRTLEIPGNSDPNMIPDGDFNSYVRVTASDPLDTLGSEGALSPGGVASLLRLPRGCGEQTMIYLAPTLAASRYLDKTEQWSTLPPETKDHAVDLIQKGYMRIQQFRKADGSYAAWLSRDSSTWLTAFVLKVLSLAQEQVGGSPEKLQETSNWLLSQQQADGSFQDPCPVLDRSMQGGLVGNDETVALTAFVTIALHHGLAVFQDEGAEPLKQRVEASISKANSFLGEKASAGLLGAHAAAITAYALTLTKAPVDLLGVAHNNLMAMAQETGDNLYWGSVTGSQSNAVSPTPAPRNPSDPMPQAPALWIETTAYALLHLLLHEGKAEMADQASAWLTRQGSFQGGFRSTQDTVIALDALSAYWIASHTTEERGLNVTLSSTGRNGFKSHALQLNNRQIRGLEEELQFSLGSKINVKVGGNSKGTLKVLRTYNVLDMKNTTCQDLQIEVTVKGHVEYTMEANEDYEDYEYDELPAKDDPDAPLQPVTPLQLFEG
T1 chain 3: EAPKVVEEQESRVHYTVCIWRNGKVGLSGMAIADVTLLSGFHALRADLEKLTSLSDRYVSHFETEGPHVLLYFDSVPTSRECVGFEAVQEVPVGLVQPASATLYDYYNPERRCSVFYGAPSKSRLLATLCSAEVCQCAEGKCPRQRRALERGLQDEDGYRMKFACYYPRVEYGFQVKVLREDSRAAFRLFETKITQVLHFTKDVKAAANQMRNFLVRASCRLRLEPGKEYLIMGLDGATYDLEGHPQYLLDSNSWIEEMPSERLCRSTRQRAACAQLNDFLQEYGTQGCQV

B1: Const. No. 40: HSA-GGSSGG-hCFI; T59E (enzyme)
chain: [not shown - about 600 residues]GGSSGGKVTYTSQEDLVEKKCLAKKYTHLSCDKVFCQPWQRCIEGTCVCKLPYQCPKNGTAVCAENRRSFPTYCQQKSLECLHPGTKFLNNGTCTAEGKFSVSLKHGNTDSEGIVEVKLVDQDKTMFICKSSWSMREANVACLDLGFQQGADTQRRFKLSDLSINSTECLHVHCRGLETSLAECTFTKRRTMGYQDFADVVCYTQKADSPMDDFFQCVNGKYISQMKACDGINDCGDQSDELCCKACQGKGFHCKSGVCIPSQYQCNGEVDCITGEDEVGCAGFASVTQEETEILTADMDAERRRIKSLLPKLSCGVKNRMHIRRKRIVGGKRAQLGDLPWQVAIKDASGITCGGIYIGGCWILTAAHCLRASKTHRYQIWTTVVDWIHPDLKRIVIEYVDRIIFHENYNAGTYQNDIALIEMKKDGNKKDCELPRSIPACVPWSPYLFQPNDTCIVSGWGREKDNERVFSLQWGEVKLISNCSKFYGNRFYEKEMECAGTYDGSIDACKGDSGGPLVCMDANNVTYVWGVVSWGENCGKPEFPGVYTKVANYFDWISYHVGRPFISQYNV
B2: Const. No. 38: HSA-GGSSGG-hCFI; N52A (enzyme)
chain: [not shown - about 600 residues]GGSSGGKVTYTSQEDLVEKKCLAKKYTHLSCDKVFCQPWQRCIEGTCVCKLPYQCPKAGTAVCATNRRSFPTYCQQKSLECLHPGTKFLNNGTCTAEGKFSVSLKHGNTDSEGIVEVKLVDQDKTMFICKSSWSMREANVACLDLGFQQGADTQRRFKLSDLSINSTECLHVHCRGLETSLAECTFTKRRTMGYQDFADVVCYTQKADSPMDDFFQCVNGKYISQMKACDGINDCGDQSDELCCKACQGKGFHCKSGVCIPSQYQCNGEVDCITGEDEVGCAGFASVTQEETEILTADMDAERRRIKSLLPKLSCGVKNRMHIRRKRIVGGKRAQLGDLPWQVAIKDASGITCGGIYIGGCWILTAAHCLRASKTHRYQIWTTVVDWIHPDLKRIVIEYVDRIIFHENYNAGTYQNDIALIEMKKDGNKKDCELPRSIPACVPWSPYLFQPNDTCIVSGWGREKDNERVFSLQWGEVKLISNCSKFYGNRFYEKEMECAGTYDGSIDACKGDSGGPLVCMDANNVTYVWGVVSWGENCGKPEFPGVYTKVANYFDWISYHVGRPFISQYNV
B3: Const. No. 15: HSA-GGSSGG-hCFI; S499K (enzyme)
chain: [not shown - about 600 residues]GGSSGGKVTYTSQEDLVEKKCLAKKYTHLSCDKVFCQPWQRCIEGTCVCKLPYQCPKNGTAVCATNRRSFPTYCQQKSLECLHPGTKFLNNGTCTAEGKFSVSLKHGNTDSEGIVEVKLVDQDKTMFICKSSWSMREANVACLDLGFQQGADTQRRFKLSDLSINSTECLHVHCRGLETSLAECTFTKRRTMGYQDFADVVCYTQKADSPMDDFFQCVNGKYISQMKACDGINDCGDQSDELCCKACQGKGFHCKSGVCIPSQYQCNGEVDCITGEDEVGCAGFASVTQEETEILTADMDAERRRIKSLLPKLSCGVKNRMHIRRKRIVGGKRAQLGDLPWQVAIKDASGITCGGIYIGGCWILTAAHCLRASKTHRYQIWTTVVDWIHPDLKRIVIEYVDRIIFHENYNAGTYQNDIALIEMKKDGNKKDCELPRSIPACVPWSPYLFQPNDTCIVSGWGREKDNERVFSLQWGEVKLISNCSKFYGNRFYEKEMECAGTYDGKIDACKGDSGGPLVCMDANNVTYVWGVVSWGENCGKPEFPGVYTKVANYFDWISYHVGRPFISQYNV
B4: Const. No. 41: HSA-GGSSGG-hCFI; L73F (enzyme)
chain: [not shown - about 600 residues]GGSSGGKVTYTSQEDLVEKKCLAKKYTHLSCDKVFCQPWQRCIEGTCVCKLPYQCPKNGTAVCATNRRSFPTYCQQKSFECLHPGTKFLNNGTCTAEGKFSVSLKHGNTDSEGIVEVKLVDQDKTMFICKSSWSMREANVACLDLGFQQGADTQRRFKLSDLSINSTECLHVHCRGLETSLAECTFTKRRTMGYQDFADVVCYTQKADSPMDDFFQCVNGKYISQMKACDGINDCGDQSDELCCKACQGKGFHCKSGVCIPSQYQCNGEVDCITGEDEVGCAGFASVTQEETEILTADMDAERRRIKSLLPKLSCGVKNRMHIRRKRIVGGKRAQLGDLPWQVAIKDASGITCGGIYIGGCWILTAAHCLRASKTHRYQIWTTVVDWIHPDLKRIVIEYVDRIIFHENYNAGTYQNDIALIEMKKDGNKKDCELPRSIPACVPWSPYLFQPNDTCIVSGWGREKDNERVFSLQWGEVKLISNCSKFYGNRFYEKEMECAGTYDGSIDACKGDSGGPLVCMDANNVTYVWGVVSWGENCGKPEFPGVYTKVANYFDWISYHVGRPFISQYNV
B5: Const. No. 21: HSA-GGSSGG-hCFI; K423R (enzyme)
chain: [not shown - about 600 residues]GGSSGGKVTYTSQEDLVEKKCLAKKYTHLSCDKVFCQPWQRCIEGTCVCKLPYQCPKNGTAVCATNRRSFPTYCQQKSLECLHPGTKFLNNGTCTAEGKFSVSLKHGNTDSEGIVEVKLVDQDKTMFICKSSWSMREANVACLDLGFQQGADTQRRFKLSDLSINSTECLHVHCRGLETSLAECTFTKRRTMGYQDFADVVCYTQKADSPMDDFFQCVNGKYISQMKACDGINDCGDQSDELCCKACQGKGFHCKSGVCIPSQYQCNGEVDCITGEDEVGCAGFASVTQEETEILTADMDAERRRIKSLLPKLSCGVKNRMHIRRKRIVGGKRAQLGDLPWQVAIKDASGITCGGIYIGGCWILTAAHCLRASKTHRYQIWTTVVDWIHPDLKRIVIEYVDRIIFHENYNAGTYQNDIALIEMKKDGNRKDCELPRSIPACVPWSPYLFQPNDTCIVSGWGREKDNERVFSLQWGEVKLISNCSKFYGNRFYEKEMECAGTYDGSIDACKGDSGGPLVCMDANNVTYVWGVVSWGENCGKPEFPGVYTKVANYFDWISYHVGRPFISQYNV
B6: Const. No. 29: HSA-GGSSGG-hCFI; E401F (enzyme)
chain: [not shown - about 600 residues]GGSSGGKVTYTSQEDLVEKKCLAKKYTHLSCDKVFCQPWQRCIEGTCVCKLPYQCPKNGTAVCATNRRSFPTYCQQKSLECLHPGTKFLNNGTCTAEGKFSVSLKHGNTDSEGIVEVKLVDQDKTMFICKSSWSMREANVACLDLGFQQGADTQRRFKLSDLSINSTECLHVHCRGLETSLAECTFTKRRTMGYQDFADVVCYTQKADSPMDDFFQCVNGKYISQMKACDGINDCGDQSDELCCKACQGKGFHCKSGVCIPSQYQCNGEVDCITGEDEVGCAGFASVTQEETEILTADMDAERRRIKSLLPKLSCGVKNRMHIRRKRIVGGKRAQLGDLPWQVAIKDASGITCGGIYIGGCWILTAAHCLRASKTHRYQIWTTVVDWIHPDLKRIVIEYVDRIIFHFNYNAGTYQNDIALIEMKKDGNKKDCELPRSIPACVPWSPYLFQPNDTCIVSGWGREKDNERVFSLQWGEVKLISNCSKFYGNRFYEKEMECAGTYDGSIDACKGDSGGPLVCMDANNVTYVWGVVSWGENCGKPEFPGVYTKVANYFDWISYHVGRPFISQYNV
B7: Const. No. 48: HSA-GGSSGG-hCFI; Δ(V565) > VG (enzyme)
chain: [not shown - about 600 residues]GGSSGGKVTYTSQEDLVEKKCLAKKYTHLSCDKVFCQPWQRCIEGTCVCKLPYQCPKNGTAVCATNRRSFPTYCQQKSLECLHPGTKFLNNGTCTAEGKFSVSLKHGNTDSEGIVEVKLVDQDKTMFICKSSWSMREANVACLDLGFQQGADTQRRFKLSDLSINSTECLHVHCRGLETSLAECTFTKRRTMGYQDFADVVCYTQKADSPMDDFFQCVNGKYISQMKACDGINDCGDQSDELCCKACQGKGFHCKSGVCIPSQYQCNGEVDCITGEDEVGCAGFASVTQEETEILTADMDAERRRIKSLLPKLSCGVKNRMHIRRKRIVGGKRAQLGDLPWQVAIKDASGITCGGIYIGGCWILTAAHCLRASKTHRYQIWTTVVDWIHPDLKRIVIEYVDRIIFHENYNAGTYQNDIALIEMKKDGNKKDCELPRSIPACVPWSPYLFQPNDTCIVSGWGREKDNERVFSLQWGEVKLISNCSKFYGNRFYEKEMECAGTYDGSIDACKGDSGGPLVCMDANNVTYVWGVVSWGENCGKPEFPGVYTKVANYFDWISYHVGRPFISQYNVG

The experiment concerns the target T1, human C4b. Put plainly: cell-based or functional assay.
Consider B1, for which the “C4c EC50” value was found to be 215 nM.
For B2, the “C4c EC50” value was 219 nM.
As for B3, the figure is 489 nM; as for B4, 224 nM.
For B5 the value was 240 nM; for B6, 210 nM; for B7, 812 nM.
